Laboratory results taken from PubChem BioAssay AID1347120 (National Center for Advancing Translational Sciences (NCATS), 2019).
The campaign covered roughly 390,000 compounds. About 930 (0.24%) were called active. The shares of active, inactive and inconclusive entries below differ from those in the screen. Calls follow the shape of the dose curve; as a rule, active = well fitted activation curve with a large enough effect; inconclusive = small, poorly fitted or top-dose-only effect; inactive = no such curve, though single readings can be large or run the other way. A potency beside an inconclusive call is a rough fit, not a confirmed value.

Assay: qHTS for Suppressors of FUS Proteinopathy: Primary screen using FUS-linked yeast assay; also: nearly all actives have a fitted effect of over 55% in size
Details: S. cerevisiae FUS-expressing, OD600, 24 h; Potency: growth rescue; series mostly up to 76.6 µM
Method in brief: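 Cultures pregrown in 2.5% raffinose medium are shifted to minimal medium containing 2% galactose to express toxic FUS. Compounds are tested at several concentrations. After 24hr at 30C, growth is quantified at 600 nm absorbance.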
Potency is read from the fitted curve at half-maximal effect; tags tell the direction and shape of the fitted curve.

Compound | Potency
COC(=O)c1ccc(NC(=O)CC2C(=O)N(c3ccc(C)cc3)C(=O)N2Cc2ccc(OC)cc2)cc1 (stereo not drawn) | inactive
O=C(c1cccc2ccccc12)N1CCN(c2ccc([N+](=O)[O-])c(N3CCOCC3)c2)CC1 | inconclusive: 22.4 µM [activator, single point]
Cc1ccc(N=C2C(=S)N(c3ccc(C)cc3)C(=N)N2/N=C/c2ccc(Cl)cc2)cc1 | inconclusive: 12.6 µM [activator, partial curve]
COc1cc(OC)cc(-c2c(-c3ccc(F)cc3)c3cc(-c4ccc5[nH]ccc5c4)ccc3n2C)c1 | inconclusive: 25.1 µM [activator, partial curve, poor fit]
COc1ccccc1NC(=O)CC1S/C(=N/N=C2\CCCc3ccccc32)NC1=O (stereo not drawn) | inconclusive: 28.2 µM [activator, single point]
COc1ccc(CNC(=O)C[C@@H]2C[C@H]3c4cc(NC(=O)NC5CCCC5)ccc4O[C@H]3[C@H](CO)O2)cc1 | inconclusive: 44.7 µM [activator, single point]
COc1ccc(/C=N/NC(=O)c2cc(C)n(-c3ccccc3)c2C)cc1OC | inconclusive: 31.6 µM [activator, partial curve, poor fit]
COc1cc(C(=O)Nc2ccc(S(=O)(=O)Nc3cnc4ccccc4n3)cc2)cc(OC)c1OC | inconclusive: 31.6 µM [activator, single point]
COc1ccc(CCC(=O)N2c3ccccc3N=C(c3ccc4c(c3)OCO4)C2C(=O)NCc2ccccc2)cc1 (stereo not drawn) | inconclusive: 10 µM [activator, full curve]
Cc1noc(/C=C/c2ccco2)c1S(=O)(=O)N1CCC(C(=O)N2CCc3ccccc3C2)CC1 | inconclusive: 5.01 µM [activator, partial curve, poor fit]
COCCNC(=O)c1ccc2c(c1)N(Cc1c(F)cccc1Cl)C(=O)c1ccccc1S2 | inconclusive: 28.2 µM [activator, single point]
CCCc1cc(=O)[nH]c(Nc2ccc(C)c(O)c2)n1 | inactive
Cc1ccc(CN2CCN(Cc3cccn3-c3ccc(Cl)cn3)CC2CCO)o1 (stereo not drawn) | inconclusive: 50.1 µM [activator, single point]
CC(=O)/C(=N/Nc1ccccc1)Sc1nnc(CCc2ccccc2)n1-c1ccccc1 | inconclusive: 50.1 µM [activator, partial curve, poor fit]
O=c1c2ccccc2nc(N2CCN(c3cccc(Cl)c3)CC2)n1-c1ccccc1 | inconclusive: 31.6 µM [activator, single point]
Cc1ccc(OCC(=O)Nc2ccc(S(=O)(=O)NC3=NCCCCC3)cc2)cc1 | inconclusive: 25.1 µM [activator, partial curve, poor fit]
CCC(C(=O)N1CCN(c2ccc(OC)cc2)CC1)n1nc(C)n2c(cc3occc32)c1=O (stereo not drawn) | inconclusive: 22.4 µM [activator, partial curve, poor fit]
COc1ccc(NC(=O)CC2C(=O)N(c3ccc(C)cc3)C(=O)N2Cc2ccc(C)cc2)cc1 (stereo not drawn) | inactive
CCOC(=O)C(=CNNc1cccc(Cl)c1)C(=O)OCC | inactive
COc1ccc(-c2csc(Nc3ccc(S(=O)(=O)Nc4cc(C)on4)cc3)n2)cc1 | inconclusive: 12.6 µM [activator, partial curve]
COc1cccc2[nH]c(C(=O)NCc3ccccc3)cc12 | inactive

Compound | Potency
O=C(c1ccc2c(c1)N(Cc1ccc(Cl)cc1)C(=O)c1ccccc1S2(=O)=O)N1CCc2ccccc21 | active: 7.94 µM
CCC(C(=O)Nc1cccc(C#N)c1)n1nc(-c2ccccc2)ccc1=O (stereo not drawn) | inconclusive: 31.6 µM [activator, single point]
Cc1ccc(-c2nnc(Nc3cccc(Br)c3)c3ccccc23)cc1S(=O)(=O)NCC1CCCO1 (stereo not drawn) | inconclusive: 50.1 µM [activator, single point]
Cc1cccc(NC(=S)NC(=O)CCc2ccccc2)c1C | inactive
CCN1c2ccccc2-c2nc(SCC(=O)Nc3cc(F)ccc3F)ncc2S1(=O)=O | inactive
COc1ccc(/C=C/C(=O)c2cc(F)ccc2OC(=O)c2ccc(OC)c(OC)c2)cc1OC | inconclusive: 50.1 µM [activator, single point]
Cc1ccc(Nc2nc(C)c(NC(=O)c3ccc(C)cc3)c(Nc3ccc(C)cc3)n2)cc1 | inconclusive: 31.6 µM [activator, single point]
C=CCOC(=O)C1=C(C)N=c2sc(=C3C(=O)N(CC(=O)O)c4ccccc43)c(=O)n2C1c1ccc(OC)cc1 (stereo not drawn) | inconclusive: 28.2 µM [activator, single point]
CCc1cccc(C)c1NC(=O)C(CC)Sc1nncn2c1cc1occc12 (stereo not drawn) | inactive
CCC(=O)Nc1cc(-c2nc3ccccc3s2)c(Cl)cc1Cl | inactive
CC[C@]12c3[nH]c4cc(CCC(=O)N(C)C)ccc4c3CCN1C(=O)[C@@H](CC(=O)NC(C)(C)C)C[C@@H]2C(=O)N1CCN(C(=O)C2CC2)CC1 | inactive
Cn1c(=O)n(C)c2cc(NS(=O)(=O)c3ccc(C(C)(C)C)cc3)c(NCc3ccccc3)cc21 | inconclusive: 31.6 µM [activator, partial curve, poor fit]
Cc1ccccc1OCCNC(=O)c1ccccc1Sc1ccccc1C#N | inconclusive: 28.2 µM [activator, single point]
NC(=O)c1cccc(-c2ccnc3c2CC(C(=O)Nc2cccc(Oc4ccccc4)c2)O3)c1 (stereo not drawn) | inconclusive: 44.7 µM [activator, single point]
CCCCCCCCN1C(=O)[C@H](CC(=O)NCCCC)C[C@@]2(C(=O)OC)CCCCC=C12 | inconclusive: 15.8 µM [activator, partial curve, poor fit]
CS(=O)(=O)N1CCC[C@]2(CC[C@H](CCC#N)O2)C1 | inactive
CC1(C(=O)NS(=O)(=O)c2cccc(Cl)c2)CCN1C(=O)c1ccccc1CCc1ccccc1 (stereo not drawn) | inactive
O=C(NCc1ccccc1)C(c1ccccc1F)n1c(=O)c(-c2ccco2)nc2ccccc21 (stereo not drawn) | inconclusive: 31.6 µM [activator, partial curve, poor fit]
NC(=S)NN=C(c1ccccc1)c1ccccc1 | inactive
COCC(=O)Nc1ccc(Br)c(C)c1 | inactive
CCOC(=O)c1c(-c2ccccc2)oc2ccc(OCC)cc12 | inactive

Compound | Potency
O=C(NCc1cccc(F)c1)c1cccc2c1C(=O)c1ccc(N3CCCC3)cc1S2(=O)=O | inconclusive: 31.6 µM [activator, single point]
COc1ccccc1-c1cc(C(=O)N/N=C/c2ccoc2)c2ccccc2n1 | inconclusive: 31.6 µM [activator, single point]
CCc1nnc(NS(=O)(=O)c2ccc(N/C=C(\C=O)c3nc4cc(Cl)ccc4o3)cc2)s1 | inactive
COc1ccccc1NS(=O)(=O)c1cc(NC(=O)CCc2nc3ccccc3c(=O)[nH]2)ccc1C | inconclusive: 35.5 µM [activator, single point]
Cc1cccc(NC(=O)c2sc(-n3nc(C)c(CCC(C)C)c3C)nc2C)c1 | inactive
NC(=O)c1cc(-c2csc(NCCc3ccccc3)n2)ccc1O | inconclusive: 39.8 µM [activator, partial curve, poor fit]
CC[C@@H]1C(c2cccc(Cl)c2)=NN(c2ccc(Br)cc2)[C@H]1C(=O)N1CCOC1=O | inconclusive: 22.4 µM [activator, single point]
O=C(NC(c1ccc(-c2ccccc2)cc1)c1cnccn1)C1CCN(Cc2ccc(Oc3ccccc3)cc2)CC1 (stereo not drawn) | inconclusive: 15.8 µM [activator, partial curve, poor fit]
O=C(O)c1ccc(NS(=O)(=O)c2ccc3c(c2)C(=O)c2cc(S(=O)(=O)Nc4ccc(C(=O)O)cc4)ccc2-3)cc1 | inconclusive: 2.82 µM [activator, full curve]
NS(=O)(=O)c1cccnc1Nc1c(Cl)cccc1Cl | inactive
COc1ccccc1NC(=O)CCSc1nnc(-c2ccco2)o1 | inactive
CC1(OC(=O)CCc2ccccc2)C(=O)C=C2C=C(c3ccc(C#N)cc3)N(C3CC3)C=C2C1=O (stereo not drawn) | inconclusive: 35.5 µM [activator, single point]
Cc1cccc(COC[C@H](CC(C)C)N2CCN(C(=O)c3ccc(C(C)(C)C)cc3)CCC2=O)c1 | inconclusive: 28.2 µM [activator, single point]
Cc1ccc(-n2c(SCC(=O)Nc3ccc4c(c3)OCCO4)nnc2-c2cccnc2)cc1 | inactive
COc1ccc(C(C)=O)cc1COC(=O)C1CCN(C(=O)c2ccc(Cl)cc2)CC1 | inconclusive: 31.6 µM [activator, single point]
COc1ccccc1-c1nnc(C2CCN(S(=O)(=O)c3ccc(F)c(C)c3)CC2)o1 | inconclusive: 14.1 µM [activator, partial curve, poor fit]
CN(C(=O)c1cccc(NC(=O)Cc2ccc(NC(=O)C3CCCN(C(=O)CCc4ccccc4)C3)cc2)c1)C1CCC1 (stereo not drawn) | inconclusive: 28.2 µM [activator, single point]
CCOC(=O)N1CCN(C(=O)Cn2ncc3c4ccccc4n(Cc4ccc(F)cc4)c3c2=O)CC1 | inconclusive: 31.6 µM [activator, single point]
Cc1ccc(C(=O)N2CCN(c3ccccc3)CC2)cc1S(=O)(=O)N1CCCC1 | inactive
O=C(COc1ccc(S(=O)(=O)N2CCCC2)cc1)NCc1ccccn1 | inactive
CCCCNc1c(-c2ccc(SC(C)CC)c(OC)c2)nc2ccc(C)cn12 (stereo not drawn) | inconclusive: 22.4 µM [activator, single point]
